Experimental data taken from PubChem BioAssay AID652104 (National Center for Advancing Translational Sciences (NCATS), 2013).
Hit rate of the full screen: of about 410,000 compounds, about 7,200 (1.8%) were called active. The inconclusive results got no clear call from the source; some entries with a clear call stand among them for comparison. Calls come from the whole dose curve; as a rule, active = well fitted activation curve with a large enough effect; inconclusive = small, poorly fitted or top-dose-only effect, or another doubt; inactive = no such curve, though single readings can be large or run the other way. A potency beside an inconclusive call is a rough fit, not a confirmed value.

Experiment: qHTS of TDP-43 Inhibitors; note: nearly all actives have a fitted effect of over 50% in size
Conditions: TDP-43 expressing yeast growth rescue, BacTiter-Glo, 24 h; series mostly up to 46.1 µM
Outline: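 Growth rescue of TDP-43-toxic yeast measured as ATP luminescence (BacTiter-Glo). Cells grown to mid-log in raffinose, induced in galactose at OD600=0.02, exposed to compound 24 hr at 30 deg C.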
Potency is the fitted concentration of half-maximal effect; tags give direction and shape of the fitted curve.

Potency, inconclusive:
O=C(C[n+]1ccccc1)N/N=C/c1ccccc1C(F)(F)F 35.5 µM [activator, single point]
O=S(=O)(NCc1ccc(F)cc1)c1cc(Br)ccc1Br 35.5 µM [activator, single point]
Cc1ccccc1NC(=O)Cn1c(=O)n(Cc2ccccc2)c(=O)c2c(C)c(C)sc21 0.501 µM [activator, full curve, poor fit]
CCCSC(=S)c1c(C)[nH]n(-c2ccccc2)c1=O 7.08 µM [activator, partial curve]
Nc1nc2ccc(S(=O)(=O)N3CCCCC3)cc2s1 11.2 µM [activator, partial curve]
NC(=O)COC(=O)c1oc2ccccc2c1CSc1ccc(Cl)cc1 25.1 µM [activator, partial curve]
COc1cc(/C=N/O)ccc1OCc1ccc([N+](=O)[O-])cc1 5.01 µM [activator, full curve, poor fit]
C=CCNC(=O)COc1ccc(Oc2ccccc2)cc1 8.91 µM [activator, partial curve]
CN(Cc1ccccc1)C(=O)C(=O)c1ccccc1 35.5 µM [activator, partial curve]
O=C(NC(=S)Nc1ncc(Br)cc1Br)c1ccccc1 14.1 µM [activator, single point]
COc1ccc(/C(N)=N/OC(=O)Cc2cccs2)cc1 20 µM [activator, single point]
Cn1c(=O)cc(SCC(=O)N2CCN(c3ccccc3F)CC2)c2ccccc21 17.8 µM [activator, partial curve]
CCCCNC(=O)c1cc2c(-c3ccc(Cl)cc3)nn(C)c2s1 1.58 µM [activator, full curve, poor fit]
CSc1nn(Cc2ccc(C)cc2)c(N)c1S(=O)(=O)c1ccccc1 6.31 µM [activator, partial curve]
CC(C(=O)NC1CCCC1)n1c(-c2ccncc2)nc2ccccc21 (stereo unspecified) 0.316 µM [activator, full curve, poor fit]
Cn1nc(C(=O)NCc2cccs2)c2ccccc2c1=O 1.12 µM [activator, partial curve]
COc1ccccc1N1CCN(C(=O)c2ccc(S(=O)(=O)N3CCCCCC3)cc2)CC1 20 µM [activator, partial curve]
Cc1nc(NC(=O)c2ccccc2)sc1-c1csc(NCCc2ccccc2)n1 12.6 µM [activator, single point]
Cc1ccc(-n2c(SCc3ccccc3)nc3c([nH]c4ccccc43)c2=O)cc1 0.562 µM [activator, full curve]
COc1ccc(COC(=O)CCc2c[nH]c3ccccc23)cc1F 17.8 µM [activator, single point]
O=C(Cc1ccc(-n2cccc2)cc1)N1CCc2ccccc21 6.31 µM [activator, partial curve]
CCOn1c(=O)c(-c2cccs2)[n+]([O-])c2ccccc21 12.6 µM [activator, single point]
CC1CCN(CC(=O)Nc2nn(-c3ccccc3)nc2C(N)=O)CC1 3.16 µM [activator, partial curve]
Clc1ccccc1Cn1c(/C=C/c2ccco2)nc2ccccc21 14.1 µM [activator, single point]
O=C(NCc1ccc2c(c1)OCO2)Oc1ccccc1 4.47 µM [activator, full curve, poor fit]
Cc1ccccc1-c1cc2nc(OCC3CCCO3)n(C)c(=O)c2s1 (stereo unspecified) 35.5 µM [activator, partial curve]
Cc1ccc(C)c(S(=O)(=O)N2CCN(C(=O)c3ccc(C)s3)CC2)c1 5.62 µM [activator, full curve]
O=c1[nH]c2ccccc2n1CCC1CCCCC1 15.8 µM [activator, single point]

Potency, inactive:
O=C(O)c1cc2ccccc2[nH]1
Cc1ccc(C(=O)Nc2cccc(C(F)(F)F)c2)cc1NC(=O)c1nccnc1N
CCOC(=O)N1CCN(c2nc(SC)nc3sc4c(c23)CC(C)(C)OC4)CC1
Cc1cc(-n2c(C)nc3ccccc3c2=O)ccc1NC(=O)c1ccccc1[N+](=O)[O-]
Cc1cn([C@H]2C[C@H](O)[C@@H](CCC(=O)NC(c3ccccc3)c3ccccc3)O2)c(=O)[nH]c1=O
COc1cc(NC(=O)CCc2c(C)nn(-c3ccc(N4CCCCC4)nn3)c2C)cc(OC)c1OC
CCOc1ccc2[nH]cc(S(=O)(=O)c3ccc(Cl)cc3)c(=O)c2c1
COC(=O)c1cc(-c2ccc(C)cc2)c2c(=O)n(C)c(=O)n(C)c2n1
CSc1ccc(C2Nc3cccc4cccc(c34)N2)cc1
C=CCc1cccc(/C=N/NC(=O)CNc2cccc3ccccc23)c1O
CCOc1cccc2sc(N(Cc3cccnc3)C(=O)c3ccc(C#N)cc3)nc12

Potency, active:
O=C(CSc1nc2ccccc2o1)NCc1ccc2c(c1)OCO2 14.1 µM
O=C(/C(=C/c1ccc(Cl)cc1)c1nc2ccccc2[nH]1)c1cccs1 3.16 µM
CC(NC(=O)OC(C)(C)C)C(=O)Oc1cc2oc(=O)cc(-c3ccccc3)c2cc1Cl (stereo unspecified) 4.47 µM
O=C(NC(=S)NCc1ccccc1)c1ccc2c(c1)OCO2 25.1 µM
COc1cc(NC(=O)c2csc(N)n2)cc(C(=O)Nc2cccc(C(F)(F)F)c2)c1 31.6 µM
CCc1ccc([C@H]2C(C(=O)O)=C[C@@H](C(C)(C)C)N2S(=O)(=O)c2ccc(C)cc2)cc1 14.1 µM
COc1cc(/C=N/N2CCOCC2)ccc1OCc1ccc(Cl)cc1 11.2 µM
